Reference: PubChem BioAssay AID1963576 (National Center for Advancing Translational Sciences (NCATS), 2024)
Screen size: about 46,000 compounds; about 60 (0.1%) were called active. Inconclusive results (about 3%) are left out. Calls come from the whole dose curve; as a rule, active = well fitted inhibition curve with a large enough effect; inconclusive = small, poorly fitted or top-dose-only effect; inactive = no such curve, though single readings can be large or run the other way. The list shows a part of the results.

Assay: Primary qHTS assay for Inhibitors of ovarian cancer metastasis using an organotypic tumor microenvironment (TME) model.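 For activity change, negative = inhibition: plate controls were DMSO wells for no effect and tomatine positive control wells for full effect.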 Note: nearly all actives have a fitted effect of over 65% in size.
Settings: SKOV3ip1-GFP adhesion/invasion on 3D omental model, fluorescence; series mostly up to 45.8 µM; activity change, negative = inhibition: at the top concentration
Method in brief: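 qHTS, 4-pt dose (0.36-46 umol/L); SKOV3ip1-GFP, 1,200 cells/well, no FBS; primary omental fibroblast/mesothelial co-culture 48 h pre-grown; 2 h RT + 16 h 37 C; PBS wash, 4% PFA; GFP count 488/509 nm.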

| SMILES | outcome | activity change, negative = inhibition |
| --- | --- | --- |
| Cc1cc(C)cc(NC(=O)Cn2c(=O)n(C(C)C)c(=O)c3oc4ccccc4c32)c1 | inactive | – |
| O=C(Cc1ccc(NC(=O)N2CCSc3ncccc32)cc1)NCc1ccccc1 | – | inactive: 10.5% |
| Cc1ccc(-c2nc3ccccn3c2Nc2ccc3c(c2)OCCO3)s1 | inactive | – |
| COc1ccc(NC(=O)C2=C(C)Nc3ncnn3C2c2ccc(C)o2)cc1 (stereo not drawn) | inactive | – |
| CC1(C)CC(=O)c2cc(C(=O)Nc3ccc(Br)cc3)c(=O)[nH]c2C1 | – | inactive: 4.24% |
| CCN(C(=O)C1CCC(CNS(=O)(=O)c2cccc3nsnc23)CC1)c1ccccc1 (stereo not drawn) | – | inactive: 2.11% |
| CCN(C(=O)C1CCC(CNS(=O)(=O)c2cccc3nsnc23)CC1)c1cccc(C)c1 (stereo not drawn) | – | inactive: 2.15% |
| Cc1oc2ncnc(N3CCOCC3)c2c1C(=O)N1CCN(c2cccc(C(F)(F)F)c2)CC1 | inactive | – |
| Cc1ccc(Oc2nc3c(c(=O)n(Cc4ccccc4)c(=O)n3C)n2C)cc1C | – | inactive: 8.49% |
| COc1cccc(-c2ccnc3c(-c4ccc(F)cc4)c(C)nn23)c1 | inactive | – |
| CCCn1c(=N)c(C(=O)NCc2cccnc2)cc2c(=O)n3cccc(C)c3nc21 | inactive | – |
| Cc1ccc(COc2ccc3oc(-c4ccccc4)c(C(=O)O)c3c2)cc1 | – | inactive: -6.3% |
| Cc1ccc(NC(=O)c2ccc(=O)n(CC(=O)Nc3c(C)cc(C)cc3C)n2)cc1 | – | inactive: 2.51% |
| CCOc1ccc(C2N3CC4(C(C)C)CN2CC(C(C)C)(C3)C4=O)cc1OC (stereo not drawn) | – | inactive: -9.54% |
| CCOc1ccccc1NC(=O)N(C)CCc1c(C)nn(CC)c1C | – | inactive: 3.5% |
| COc1ccc(/C=C/C(=O)N2CCC(c3nc4ccccc4o3)CC2)cc1OC | inactive | – |
| COc1ccc(OCC(=O)N2CCN(C(=O)c3cc(OC)c(OC)c(OC)c3)CC2)cc1 | inactive | – |
| Cc1cc(C)n2c(Nc3ccccc3C)c(-c3cccs3)nc2n1 | inactive | – |
| COc1cccc(C(=O)Nc2ccc(-n3nncc3-c3ccc(Br)cc3)cc2)c1OC | inactive | – |
| O=C1CCc2ccc(OCCCCN3CCN(c4cccc(Cl)c4Cl)CC3)cc2N1 | – | inactive: -10.6% |
| CCN(C(=O)Cn1c(SCC(=O)Nc2ccc(OC)cc2)nc2ccccc21)c1cccc(C)c1 | – | inactive: -11.5% |

| SMILES | outcome | activity change, negative = inhibition |
| --- | --- | --- |
| CC(C)(C)c1ccc(C(=O)NNc2ncnc3c2cnn3-c2ccccc2)cc1 | – | inactive: -34% |
| O=C(COc1ccccc1)NCC(c1cccs1)S(=O)(=O)c1ccc(Cl)cc1 (stereo not drawn) | – | inactive: 1.88% |
| CCOc1ccc(C2C=C(c3cccc(OC)c3)Nc3nnnn32)cc1 (stereo not drawn) | inactive | – |
| COc1ccc(C(=O)N2CC(=O)Nc3ccc(C)cc3C2c2ccccc2)cc1OC (stereo not drawn) | – | inactive: 0.475% |
| COc1ccc(-n2nc(C(=O)Nc3ccc(Br)cc3C)c3c4ccccc4n(C)c3c2=O)cc1 | – | inactive: 1.27% |
| Cc1ccc2nc(-c3ccc(C)c(NC(=O)Cc4ccccc4)c3)oc2c1 | – | inactive: 2.95% |
| Cc1ccccc1CN1CCc2nc(N3CCN(c4ccccn4)CC3)ncc2C1 | – | inactive: -31.5% |
| Cc1cc(C)cc(NS(=O)(=O)c2ccc3c(c2)OCC(C(=O)N2CCCC2)O3)c1 (stereo not drawn) | – | inactive: 7.97% |
| COc1ccc2nc3oc(C(=O)Nc4cccc(C(F)(F)F)c4)cc3cc2c1 | – | inactive: 6.29% |
| CCOc1ccc(NC(=O)CN(Cc2ccccc2)S(=O)(=O)c2ccc(Cl)cc2)cc1 | – | inactive: -17.6% |
| Cc1ccc(CNC(=O)CSc2c3c(nc4ccc(Cl)cc24)CCCC3)cc1 | inactive | – |
| Cc1c(C2=CCN(S(=O)(=O)c3ccc(Br)cc3)CC2)c2ccccc2n1CC(=O)N1CCCC1 | – | inactive: 10.6% |
| Cc1cccc(Nc2nc(C)nc(N)c2S(=O)(=O)c2ccccc2)c1 | – | inactive: 17.6% |
| Cc1c(Cl)cccc1NC(=O)c1ccc(NC(=O)N2CCSc3ncccc32)cc1 | – | inactive: 5.94% |
| Cc1ccccc1NC(=O)CS(=O)(=O)c1cccc2nsnc12 | – | inactive: -11% |
| COc1ccc(N2CCN(CCCNC(=O)c3ccc4nc(CCc5ccccc5)oc4c3)CC2)cc1 | inactive | – |
| COc1ccc(NC(=O)CSc2c3c(nc4ccc(Cl)cc24)CCCC3)cc1Cl | – | inactive: -11.7% |
| CCOc1ccc(C2C(C(=O)Nc3ccc(OC)cc3)=C(C)Nc3nc(SCc4ccc(Cl)cc4)nn32)cc1 (stereo not drawn) | – | inactive: 2.46% |
| O=C(Nc1ccc(Br)cc1)N1CCC(CN2CCCC2)CC1 | – | inactive: 13.7% |
| CCNC(=O)c1c(NC(=O)COc2ccc(F)cc2)sc2c1CCCC2 | – | inactive: 2.64% |
| CCc1c(C)sc2c1CCN(C(=O)Nc1ccccc1C(=O)OC)C2c1ccc(F)cc1 (stereo not drawn) | – | inactive: 7.65% |

| SMILES | outcome | activity change, negative = inhibition |
| --- | --- | --- |
| CCCC12CN3CC(C)(CN(C1)C3c1ccccc1Cl)C2=O (stereo not drawn) | – | inactive: 5.16% |
| O=C(c1ccc2c(c1)N(Cc1ccc(F)cc1)CCS2)N1CCN(c2ccccc2)CC1 | – | inactive: 2.08% |
| Cc1cccc2c1CC[C@H](CN1CCC(c3c(Cl)cccc3Cl)CC1)C[C@@H]2O | – | inactive: 7.93% |
| COc1ccc2c(c1)CC(C(=O)NCCN1CCN(c3cccc(Cl)c3)CC1)CO2 (stereo not drawn) | – | inactive: 2.13% |
| CCCc1ccc(OCC(=O)Nc2scc(-c3cccs3)c2C(=O)OC)cc1 | – | inactive: -3.02% |
| Cc1ccc(CNC(=O)c2sc3nc4n(c(=O)c3c2C)CCCC4)cc1 | – | inactive: 1.2% |
| Cc1nc(Oc2ccccc2C)c2oc3ccccc3c2n1 | – | inactive: 3.1% |
| COc1cccc(NC(=O)CN(C)S(=O)(=O)c2cccs2)c1 | – | inactive: 7.38% |
| CCC(=O)N1CCc2cc(CNC(=O)Nc3ccccc3Cl)ccc21 | – | inactive: 9.24% |
| O=C(CCNS(=O)(=O)c1ccc2c(c1)CCCC(=O)N2)NCc1ccccc1Cl | inactive | – |
| CCOc1cc(C#N)c(NC(=O)c2cccc(S(=O)(=O)N3CCOCC3)c2)cc1OCC | – | inactive: -5.1% |
| CCCCCCCCCCCC1=C(O)C(=O)C=C(O)C1=O | – | inactive: -21.1% |
| Cc1ccc(C)c(NC(=O)CCc2nc(-c3ccc(C(C)(C)C)cc3)no2)c1 | inactive | – |
| COc1cc(CNC(=O)CSCc2nc3cccnc3n2C2CCCCC2)cc(OC)c1OC | – | inactive: 6.25% |
| CCCS(=O)(=O)N1CC(=O)N(c2ccccc2F)C(C)(C(=O)NC2CCCCCC2)C1 (stereo not drawn) | – | inactive: 20.7% |
| CCc1ccc(NC(=O)c2cc(S(=O)(=O)N3CCCC3)ccc2F)cc1 | – | inactive: 3.24% |
| COc1ccc(CCNC(=O)c2cc(C)nc3c2c(C)nn3-c2ccccc2)cc1OC | inactive | – |
| Cc1ccc(C(=O)Nc2ccc3c(c2)N(C)C(=O)c2ccccc2S3)cc1 | – | inactive: 5.36% |
| CC(C(=O)NCc1ccccc1)N1Cc2ccccc2C1=O (stereo not drawn) | – | inactive: 1.84% |
| CC1CCN(C(=O)CSc2nc(-c3ccc(C(C)C)cc3)no2)CC1 | inactive | – |
| CCC1CCCCN1CCCNC(=O)c1ccc2c(c1)N(Cc1ccccc1F)C(=O)c1ccccc1S2(=O)=O (stereo not drawn) | – | inactive: -17.3% |
